Data reported in the supplement of paper PMC3334620.
The full ranking holds about 33,000 sequences; the median of “E-score (-0.5 to 0.5)” is about -0.013, and the highest 2% start at about 0.3. The list shows a part of the results.

Molecular target: T1, Msn1 (UniProt P22148)
T1 sequence: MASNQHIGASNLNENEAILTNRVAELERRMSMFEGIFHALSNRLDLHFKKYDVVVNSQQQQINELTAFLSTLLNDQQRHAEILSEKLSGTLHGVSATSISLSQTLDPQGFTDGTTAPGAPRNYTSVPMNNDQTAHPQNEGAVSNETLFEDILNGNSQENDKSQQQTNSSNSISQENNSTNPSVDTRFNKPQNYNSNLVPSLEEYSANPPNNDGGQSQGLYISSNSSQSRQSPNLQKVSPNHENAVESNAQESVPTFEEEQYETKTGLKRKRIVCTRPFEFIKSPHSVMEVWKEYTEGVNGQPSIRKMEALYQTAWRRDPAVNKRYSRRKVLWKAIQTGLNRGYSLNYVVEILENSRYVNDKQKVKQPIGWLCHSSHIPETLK
Experiment: PBM E-score (8-mer binding enrichment) (E-score (-0.5 to 0.5)); higher = stronger / more preferred TF binding; most listed sequences are background and not binding sites
Settings: protein concentration: 200 nM; construct: GST-full length
Procedure, shortened: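 PURExpress in vitro transcription/translation supplied GST-tagged yeast transcription factors, either full-length or DNA-binding domain. Applied at about 100-200 nM to universal all-10-mer Agilent arrays double-stranded by primer extension, the bound protein was detected with fluorescent anti-GST. E-scores, modified Wilcoxon-Mann-Whitney statistics, were given by the Universal PBM Analysis Suite to ungapped eight-base words pooled with their reverse complements after masliner normalisation.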

Row | Sequence | PBM E-score
1 | CGAAATTA | 0.138
2 | CATCCCGG | 0.0319
3 | ACCTGTAG | -0.0898
4 | ACAAGAAG | 0.029
5 | ATAAGAGG | -0.168
6 | GTGGCAGA | -0.184
7 | ATGTGCCG | 0.113
8 | CCGGCACC | 0.0454
9 | CACGCGCG | -0.0825
10 | CTTATGCC | -0.0711
11 | GCAAGGGC | -0.289
12 | ATCGATTG | 0.219
13 | AACGCCAG | -0.0958
14 | CATGCCTA | -0.203
15 | CCCTCGCC | -0.294
16 | TTGCCAAA | -0.0227
17 | TACAAACA | 0.301
18 | AACCCTGA | 0.188
19 | ACGACTGC | -0.178
20 | AAACTCAC | -0.147
21 | CGCCAAAG | -0.126
22 | ATAGATTG | 0.082
23 | GAGCCACA | -0.142
24 | CTGTGCTA | -0.125
25 | GCCTTGTA | 0.0896

Row | Sequence | PBM E-score
26 | CTATCGCA | -0.201
27 | CGTAGGTA | -0.0556
28 | CCCAATCA | -0.0875
29 | ATGTGACA | 0.305
30 | CAAGTGCG | -0.14
31 | GGGTCGAA | -0.195
32 | ATACCGGA | 0.0703
33 | CGCAGAAG | -0.0692
34 | AGATCTCC | -0.134
35 | AGGCCGGG | -0.207
36 | ATTGATCC | -0.035
37 | TAACGTTA | 0.11
38 | TCGCGCGA | 0.0603
39 | AGAACTAG | 0.0709
40 | CGAATACC | -0.104
41 | AGATCCAA | -0.0896
42 | ATTCTCAC | -0.00883
43 | GTACAGGA | 0.184
44 | ACGCCGTG | -0.0634
45 | ACTGTAAT | 0.0722
46 | ATCTACTC | -0.035
47 | CTAGAGCA | -0.096
48 | GCTATGCA | -0.0988
49 | AGTGGAGG | -0.193
50 | ACATGCGG | 0.166

Row | Sequence | PBM E-score
51 | ATCGGAGG | 0.0379
52 | AGAGACGC | 0.0491
53 | CGGTTGAA | 0.109
54 | CGGTCCAC | -0.0766
55 | AAGAGCCG | -0.115
56 | GGGCACGA | -0.0856
57 | GCCCCGGC | -0.209
58 | AGCTACTA | 0.0706
59 | CACTTGAC | 0.00207
60 | GACTTATC | 0.166
61 | TAGAATGA | 0.0016
62 | GTACTACA | 0.179
63 | ACTTTTTG | 0.248
64 | ACCAGTCC | -0.232
65 | CATGTTAA | 0.163
66 | ATTAGGCC | 0.117
67 | ATCCCGAG | 0.0254
68 | GAGGAATA | 0.0988
69 | GGGCGACA | -0.119
70 | AATCATCG | -0.0148
71 | GCCGCGAC | -0.0504
72 | AGGCCGGA | -0.098
73 | GATACACC | 0.106
74 | ACGAACGT | 0.00507
75 | CATAGACG | 0.194

Row | Sequence | PBM E-score
76 | CGGAAACA | -0.0558
77 | GAAGTCTC | -0.0243
78 | CAATAATC | 0.0799
79 | AAAGGAGG | -0.303
80 | CGAGGGCC | 0.0261
81 | ATGATCAT | 0.118
82 | CGTAAACC | -0.0451
83 | TGAGGTAA | -0.0205
84 | ATGGGGTC | -0.256
85 | CTTCTTTC | -0.0964
86 | GCGCGAGA | 0.0574
87 | CGTCAAGA | -0.102
88 | TAGACCTA | 0.00091
89 | GCTTAAGC | -0.102
90 | CTCGGATA | 0.157
91 | TAATATTA | 0.24
92 | ATCGCAAT | 0.105
93 | CCTCTCGC | -0.165
94 | CGGCGCAA | -0.00261
95 | CCACATAA | 0.0595
96 | ACGTCACT | 0.109
97 | GATTTGGC | -0.221
98 | CTCACTTC | -0.212
99 | AGCATAGA | 0.00863
100 | ATGCCCGA | -0.0335

Row | Sequence | PBM E-score
101 | CCCATTTA | -0.0541
102 | CACAAGCC | -0.139
103 | CGACGATC | 0.108
104 | AACAGTGT | -0.0192
105 | AGCCACAT | -0.105
106 | CGCGACAA | 0.304
107 | GATCCTAA | -0.0896
108 | ATCTTTGG | -0.0763
109 | CCAGAGGG | -0.325
110 | ATTCGAGG | 0.0494
111 | CTCAACAA | 0.113
112 | GAATCGTC | -0.0709
113 | CGGTTGGC | 0.00858
114 | CTTGGTAA | 0.00661
115 | GGCAGAAC | -0.167
116 | ATATTACA | 0.157
117 | AGTCTAGC | -0.184
118 | GACATCCC | 0.374
119 | AATATAAA | 0.241
120 | GCGCTTGA | 0.00998
121 | ACTGAAGG | -0.0529
122 | AAACCTGA | -0.178
123 | CAGTGCAG | -0.109
124 | CGTAGCCA | -0.162
125 | ACGCACGC | 0.247

Row | Sequence | PBM E-score
126 | CTAGGTGA | -0.05
127 | AGCCACGG | -0.217
128 | AACCATGG | 0.0443
129 | ATGGTAAT | 0.04
130 | AGATCGTA | -0.0221
131 | ATGTACAT | 0.324
132 | TTGGACAA | 0.47
133 | CGTACCAG | -0.0966
134 | AGCCGTCA | -0.0555
135 | AGAGAGAT | -0.0186
136 | CCGCTTCA | -0.0885
137 | ATGGGTTA | 0.0384
138 | GGCCCGAA | 0.077
139 | GGTCCAAA | -0.0431
140 | ATTTTAGA | 0.125
141 | AGACCCAC | 0.0147
142 | CAGACTTC | 0.0133
143 | AGCACGCC | -0.104
144 | AGGAGGTA | -0.102
145 | GCAGACAA | 0.341
146 | CCGACTGC | -0.00611
147 | ATCTGCAA | -0.201
148 | ACTCAGCT | 0.0191
149 | AGGAACGA | -0.203
150 | ACTCTCGC | -0.0812

Row | Sequence | PBM E-score
151 | ACCGCGCT | -0.0147
152 | ACTGCGGA | 0.00583
153 | CGCGAAGA | -0.0312
154 | CCACGAGC | 0.00807
155 | ACTTTTAA | 0.212
156 | AGTTTCCC | -0.107
157 | GATCGGGC | -0.0953
158 | AGATATGG | 0.102
159 | CCTGTAAA | -0.157
160 | CCCTGAAA | -0.0556
161 | AAAGCCAA | -0.0502
162 | ACGCGCGC | 0.196
163 | AAACCCCA | -0.0373
164 | CTATCAGA | -0.128
165 | CTGTGGTC | 0.0127
166 | AGCATTAA | 0.08
167 | ACGACCAG | -0.0844
168 | TGTATTAA | 0.192
169 | ACCTCTAA | -0.00054
170 | AGGCTGGG | -0.258
171 | AATACATG | 0.0057
172 | CGATATTC | 0.0347
